Reference: PubChem BioAssay AID493208 (National Center for Advancing Translational Sciences (NCATS), 2011)
Hit rate of the full screen: of about 44,000 compounds, about 340 (0.77%) were called active. Another 5% or so got no clear call; they are omitted. The call rests on the fitted dose curve; in most records, active means well fitted inhibition curve with a large enough effect; inconclusive means small, poorly fitted or top-dose-only effect; inactive means flat fitted curve, though single readings scatter. Some of the results follow.

Test: Acumen qHTS Assay for Inhibitors of the mTORC1 Signaling Pathway in MEF (Tsc2-/-, p53-/-) Cells: Sytravon;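 further: plate controls were DMSO for no effect and rapamycin for full effect; nearly all actives have a fitted effect of over 50% in size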
Settings: phospho-rpS6 immunofluorescence/PI, 24 h; series mostly up to 38.3 µM; activity change, negative = inhibition: at the top concentration
Outline: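 Immunofluorescence of rpS6 phosphorylation in Tsc2-/-, p53-/- MEFs after 24 h compound exposure, normalized to propidium iodide signal. Activity is expressed as % positive cells, thresholded with 7.5 nM rapamycin.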

Activity change, negative = inhibition, inactive:
Cc1ccc(Cl)cc1N1CCN(c2ncnc3onc(-c4ccc(F)cc4)c23)CC1 -9.09%
Cc1ccc(S(=O)(=O)Cc2nc(-c3ccc(C(=O)NCc4ccccc4F)cc3)oc2C)cc1 -20%
CCOC(=O)N1CCN(C(=O)CN(c2cc(C)ccc2OC)S(=O)(=O)c2ccc(C)cc2)CC1 -1.8%
CC(C)(C)c1ccc(-c2noc(CCC(=O)Nc3cccc(Cl)c3)n2)cc1 0.0182%
Cc1ccc(-c2nnc(Nc3cccc(C(F)(F)F)c3)c3ccccc23)cc1S(=O)(=O)N1CCOCC1 -0.94%
CCc1ccc(-n2nc(C)c3c(C(=O)Nc4cc(C)ccc4C)cc(C)nc32)cc1 3.28%
COC(=O)c1sc2cccc(F)c2c1S(=O)(=O)N1CCN(c2ccc(C)cc2C)CC1 -4.68%
CC1CCN(S(=O)(=O)c2nnc(NC(=O)c3cccc(F)c3)s2)CC1 -11.4%
Cc1cccc(N2CCN(C(=O)c3ccc4c(c3)c(C)c(C)n4C)CC2C)c1 (stereo unspecified) -2.85%
Cc1ccc(NC(=O)c2cc(S(=O)(=O)N3CCCC3)c[nH]2)c(C)c1 -6.94%
COc1ccc(OC)c(S(=O)(=O)NCCc2csc3nc(-c4ccccc4)nn23)c1 0.166%
COc1ccccc1N1CCN(c2cc(C)nc3nc(-c4ccc(Cl)cc4)nn23)CC1 -1.95%
COc1nc(-c2ccc(C)cc2)ccc1-c1noc(-c2ccc(C(C)(C)C)cc2)n1 12.5%
CCc1c(C)c2ccc(O)c(CN3CCN(c4ccccc4)CC3)c2oc1=O 0.481%
CCOc1ccc2oc(=O)cc(CN3CCN(c4ccc(Cl)cc4)CC3)c2c1 -0.447%
CC(=O)N1CCc2cc(Br)cc(S(=O)(=O)CCC(=O)Nc3ccc(C)cc3Cl)c21 1.91%
CCOC(=O)c1c(NC(=O)COc2ccc(Cl)cc2C)sc(C(C)=O)c1C 8.29%
CCN1CCN(c2cc(C)c3cc(NC(=O)c4ccccc4F)ccc3n2)CC1 -25.4%
CCc1cccc(C)c1NC(=O)CN(C)S(=O)(=O)c1cccc2nsnc12 -4.6%
Cc1ccc(N2CCN(c3nc4c(S(=O)(=O)c5ccc(C)c(C)c5)nnn4c4ccccc34)CC2)c(C)c1 -3.28%
Cc1c(C(=O)N(Cc2ccc(N(C)C)cc2)CC2CCCO2)oc2ccc(Br)cc12 (stereo unspecified) -6.3%
Cc1ccc(S(=O)(=O)c2cn(C)c3cc(N4CCCCC4)c(F)cc3c2=O)cc1 -0.407%
COc1ccc(C)cc1NC(=O)N1CCC(CN2CCC(C)CC2)CC1 0.224%
CNC(=O)C1CCC(Cn2c(=O)c3sccc3n(CC(=O)NCc3cccc(OC)c3)c2=O)CC1 (stereo unspecified) 10.1%
Cc1cc(C)cc(Nc2cc(C)nc3nncn23)c1 0.766%
Cc1cccc(-c2nc3scc(CCNC(=O)c4ccc(Br)o4)n3n2)c1 -18.9%
